Experimental data published in PubChem BioAssay AID1347165 (National Center for Advancing Translational Sciences (NCATS), 2019).
About 5,700 (2.6%) of roughly 220,000 compounds were called active. Inconclusive results, whose numbers are uncertain, are shown with a selection of clear calls. Calls follow the shape of the dose curve; as a rule, active = well fitted inhibition curve with a large enough effect; inconclusive = small, poorly fitted or top-dose-only effect; inactive = no such curve, though single readings can be large or run the other way. Where the call is inconclusive, the potency comes from a doubtful curve fit.
Also: nearly all actives have a fitted effect of over 70% in size.
For activity change, negative = inhibition in this document: 0% is about no effect.
Potency is read from the fitted curve at half-maximal effect; tags tell the direction and shape of the fitted curve.

The molecules below were run against Lysine-specific demethylase 5B (Homo sapiens) (UniProt Q9UGL1) (assay: Primary screen for KDM5B Histone Demethylases FDH-coupled qHTS). Conditions: FDH-coupled NADH fluorescence (FDH is formaldehyde dehydrogenase); activity change, negative = inhibition: at 57.7 µM (top of the series) unless noted.
Sequence of UniProt Q9UGL1 (Q9UGL1 whole entry, looked up): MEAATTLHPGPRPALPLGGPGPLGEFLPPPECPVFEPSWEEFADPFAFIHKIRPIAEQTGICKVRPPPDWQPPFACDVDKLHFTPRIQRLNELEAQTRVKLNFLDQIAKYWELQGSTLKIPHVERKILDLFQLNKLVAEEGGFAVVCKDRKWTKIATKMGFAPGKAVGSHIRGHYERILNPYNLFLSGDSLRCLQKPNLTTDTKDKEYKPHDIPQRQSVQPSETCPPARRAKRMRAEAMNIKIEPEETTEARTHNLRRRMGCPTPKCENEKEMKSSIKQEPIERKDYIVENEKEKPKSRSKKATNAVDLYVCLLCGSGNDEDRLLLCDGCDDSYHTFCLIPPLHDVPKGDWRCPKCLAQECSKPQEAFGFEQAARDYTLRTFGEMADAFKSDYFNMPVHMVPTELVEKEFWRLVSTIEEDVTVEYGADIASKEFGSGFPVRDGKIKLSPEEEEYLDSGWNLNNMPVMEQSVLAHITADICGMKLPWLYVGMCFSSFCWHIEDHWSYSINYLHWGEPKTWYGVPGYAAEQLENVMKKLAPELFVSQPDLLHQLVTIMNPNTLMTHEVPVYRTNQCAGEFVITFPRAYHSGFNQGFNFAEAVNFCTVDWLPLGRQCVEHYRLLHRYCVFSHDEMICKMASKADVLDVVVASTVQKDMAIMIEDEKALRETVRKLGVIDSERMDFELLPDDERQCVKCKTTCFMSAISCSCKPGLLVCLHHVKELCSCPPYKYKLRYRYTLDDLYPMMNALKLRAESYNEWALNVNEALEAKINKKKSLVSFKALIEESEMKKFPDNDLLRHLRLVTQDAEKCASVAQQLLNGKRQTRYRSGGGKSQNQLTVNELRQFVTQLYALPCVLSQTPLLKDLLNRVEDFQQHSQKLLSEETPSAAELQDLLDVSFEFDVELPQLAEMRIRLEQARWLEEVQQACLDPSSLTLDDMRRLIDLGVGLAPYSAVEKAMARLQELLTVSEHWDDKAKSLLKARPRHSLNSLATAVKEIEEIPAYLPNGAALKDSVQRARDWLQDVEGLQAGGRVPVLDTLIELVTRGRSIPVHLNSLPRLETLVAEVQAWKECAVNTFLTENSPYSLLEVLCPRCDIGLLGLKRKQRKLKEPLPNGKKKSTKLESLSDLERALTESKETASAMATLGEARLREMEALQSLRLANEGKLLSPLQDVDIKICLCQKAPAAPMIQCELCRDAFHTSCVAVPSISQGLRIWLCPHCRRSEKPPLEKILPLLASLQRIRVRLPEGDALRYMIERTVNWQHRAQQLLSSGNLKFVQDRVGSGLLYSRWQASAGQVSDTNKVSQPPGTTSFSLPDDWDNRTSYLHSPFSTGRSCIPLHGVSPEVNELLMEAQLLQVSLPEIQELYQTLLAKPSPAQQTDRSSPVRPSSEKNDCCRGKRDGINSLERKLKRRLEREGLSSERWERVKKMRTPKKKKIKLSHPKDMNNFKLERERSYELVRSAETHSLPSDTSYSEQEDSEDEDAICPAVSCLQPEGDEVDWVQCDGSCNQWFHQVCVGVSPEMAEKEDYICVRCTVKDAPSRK
Outline: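 Here, H3K4me3 peptide (12.5 µM in substrate mix) is demethylated by KDM5BΔAP, 200 nM final, after 10 min compound exposure. Formaldehyde product is coupled through FDH (0.25 U/mL in mix) to NADH fluorescence; 30-min ΔRFU feeds dose-response curves.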
For `Cc1cc(O)c(C(c2ccccc2)N2CCN(c3ccccc3F)CC2)c(=O)n1Cc1ccco1` (stereo not given), the Potency was inconclusive: 31.6 µM [inhibitor, single point].
In the case of `COc1cccc(CNC(=O)Cn2ccn3nc(-c4ccccc4)c(CO)c3c2=O)c1`, the Potency is reported as inconclusive: 20 µM [inhibitor, partial curve, poor fit].
For `c1ccc(CN2CCNc3cnc(Nc4ccncn4)cc3C2)cc1`, the Potency was “inactive”.
For `c1csc(-c2nc3nccc(-c4cccs4)n3n2)c1`, the Potency was inconclusive: 3.16 µM [inhibitor, partial curve, poor fit].
`O=C1C(=O)N(C2CC2)C(=O)N1Cc1ncc(-c2cccc(Cl)c2)o1` was tested, and the Potency was “inactive”.
With `Cc1cccc(C)c1NC(=O)CCS(=O)(=O)c1ccc2c(c1)n(C)c(=O)c(=O)n2C` the Potency was inconclusive: 17.8 µM [inhibitor, partial curve, poor fit].
In the case of `COc1ccc(-c2nnc(SCCS(=O)(=O)c3ccc(Cl)cc3)o2)cc1OC`, the Potency is reported as “inactive”.
`Cc1cc(=O)n(CC(=O)Nc2ccc(Br)cc2)c(N(C)Cc2ccccc2)n1` was tested, and the Potency was inconclusive: 15.8 µM [inhibitor, partial curve, poor fit].
`Cc1ccc2oc(=O)c3cc(C(=O)NCc4ccc(Cl)cc4)sc3c2c1` was tested, and the activity change, negative = inhibition was inconclusive: -31.3% [inhibitor].
For `Cc1cccc(CN2CC(Oc3cccc(C(=O)NCC4CC4)c3)C2)c1`, the Potency was “inactive”.
With `Nc1ccc2ncnc(N3CCCC3)c2c1` the Potency was active: 28.2 µM.
For `CCS(=O)(=O)N1CCC(N2CCC(C)CC2)CC1`, the Potency was inconclusive: 2.51 µM [inhibitor, full curve, poor fit].
For `Cn1c2c(cc(C(=O)N3CC[C@](C)(O)[C@@H](O)C3)c1=O)CCCC2`, the Potency was inconclusive: 20 µM [inhibitor, partial curve, poor fit].
`Cc1c(C)c2cc(Cl)c(OCC(=O)NCCCn3ccnc3)cc2oc1=O` was tested, and the Potency was inconclusive: 28.2 µM [inhibitor, partial curve, poor fit].
With `Cc1ccc(CN2CCc3nc(N4CCN(c5ccccc5F)CC4)ncc3C2)s1` the Potency was inconclusive: 6.31 µM [inhibitor, partial curve, poor fit].
In the case of `CCc1nc(N2CCN(CCO)CC2)c(C#N)c2c1CCCC2`, the Potency is reported as inconclusive: 35.5 µM [inhibitor, single point].
For `COC(=O)c1ccc(C(=O)OCc2nc(N)c3ccccc3n2)cc1`, the Potency was “inactive”.
In the case of `Cc1ccccc1C(=O)N1CCc2c(nc3cc[nH]n3c2=O)C1`, the Potency is reported as active: 28.2 µM.
With `O=C1c2cccc3cccc(c23)C(=O)N1Cc1cccnc1` the Potency was inconclusive: 35.5 µM [inhibitor, partial curve, poor fit].
With `COC(=O)Cc1c(C)c2ccc(OCc3ccccc3Cl)cc2oc1=O` the Potency was inconclusive: 31.6 µM [inhibitor, partial curve, poor fit].
With `CN1CCN(C(=O)c2ccnc(-c3nnc4ccc(N(C)C)nn34)c2)CC1` the Potency was “inactive”.
For `CN(C)C[C@H]1O[C@@H](CO)[C@@H](O)[C@H]1N1CCN(c2cccc(C(F)(F)F)c2)CC1`, the Potency was inconclusive: 25.1 µM [inhibitor, partial curve].
`CN1[C@@H](CCC(=O)N2CCOCC2)CNC(=O)[C@@H]2[C@H]1CCN2CC(C)(C)C` was tested, and the Potency was “inactive”.
For `COCCOCC(=O)N1CC2CC(C1)[C@H]1CCCC(=O)N1C2` (stereo not given in full), the Potency was “inactive”.
With `O=C(NCc1ccccc1F)c1cc2ccccn2n1` the activity change, negative = inhibition was inconclusive: -42.4% [inhibitor].
With `CN(C)S(=O)(=O)c1cc(NC(=O)CN2CCc3sccc3C2c2ccccc2)ccc1Cl` (stereo not given) the Potency was “inactive”.
`COCc1nc2nc(-c3ccccc3)c(-c3ccc(N4CCN(C)CC4)nc3)cc2n1C` was tested, and the Potency was active: 35.5 µM.
For `Cc1cc(C)cc(-c2cccc(CN)c2)c1`, the Potency was “inactive”.
For `CC/C(C)=N/NC(=O)C1CC1`, the Potency was “inactive”.
With `Nc1nccnc1C(=O)NCc1ccccc1` the Potency was inconclusive: 31.6 µM [inhibitor, partial curve, poor fit].
For `O=C(Nc1cccc(F)c1)N1C[C@@H]2C[C@H](C1)c1ccc(-c3cccc(C(F)(F)F)c3)c(=O)n1C2`, the Potency was active: 28.2 µM.
`CCn1cc(-c2ccc(C)cc2)cc1C(=O)N1CCN(c2ccccn2)CC1` was tested, and the Potency was inconclusive: 28.2 µM [inhibitor, single point].
For `Cc1nc(-c2ccc(Cl)cc2)n(Cc2ccc(F)cc2F)c(=O)c1CCO`, the Potency was “inactive”.
With `COc1ccc(NC(=O)O[C@@H]2CO[C@H]3[C@@H]2OC[C@@H]3NCc2ccc(-c3ccccc3)cc2)cc1` the Potency was inconclusive: 17.8 µM [inhibitor, partial curve, poor fit].
With `CN(C)c1ccc2nnc(-c3cc(C(=O)NCCc4ccccn4)ccn3)n2n1` the Potency was active: 35.5 µM.
With `O=C1CCC(C(=O)NCc2ccc(-c3cnc4c(Oc5ccccc5)nccn34)cc2)N1` (stereo not given) the Potency was active: 35.5 µM.
`Cc1ccc(C)c(Nc2nn3c(=O)c4ccc(C(=O)N(C)Cc5ccccc5)cc4nc3s2)c1` was tested, and the Potency was inconclusive: 39.8 µM [inhibitor, single point].
With `O=S(=O)(Nc1nc2ccccc2nc1NC1CC1)c1ccccc1` the Potency was inconclusive: 25.1 µM [inhibitor, single point].
`CC(C)Nc1nccc(C2(c3ccccc3Cl)CCNCC2)n1` was tested, and the Potency was inconclusive: 14.1 µM [inhibitor, single point].
For `O=C(NC1CCCN(c2cc(-c3ccccc3)[nH]n2)C1)c1cccc(Cl)c1` (stereo not given), the Potency was “inactive”.
For `CN1CCc2c(C#N)c(NCc3ccccn3)n3cnnc3c2C1`, the Potency was inconclusive: 22.4 µM [inhibitor, single point].
With `CN(CCN1CCOCC1)C(=O)CC1C(=O)NCCN1Cc1ccccc1F` (stereo not given) the Potency was inconclusive: 14.1 µM [inhibitor, partial curve, poor fit].
`Cc1nc2cc(NC(=O)c3nn(Cc4ccccc4)c(=O)c4ccccc34)ccc2o1` was tested, and the Potency was “inactive”.
`CCOc1ccc2oc(=O)cc(CN3CCN(C(=O)c4cccc(Cl)c4)CC3)c2c1` was tested, and the Potency was inconclusive: 12.6 µM [inhibitor, partial curve, poor fit].
With `O=C(O)C(c1c[nH]c2cc(Br)ccc12)N1CCN(c2nsc3ccccc23)CC1` (stereo not given) the Potency was inconclusive: 7.94 µM [inhibitor, single point].
